Assay results published in paper PMC4336329 (PLoS ONE, 2015).
About 14,000 (4.5%) of roughly 310,000 compounds showed an effect of 50% or more. The effect is printed as a negative number. The list shows a part of the results.

Each compound was assayed against human ether-à-go-go-related gene (hERG) potassium channel (human, UniProt Q12809) (assay: primary screen, population patch clamp on CHO cells stably expressing hERG).
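Further: peak tail current of the secondary pulse compared with the same well before compound.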

Chain of human ether-à-go-go-related gene (hERG) potassium channel (Q12809 whole entry, looked up): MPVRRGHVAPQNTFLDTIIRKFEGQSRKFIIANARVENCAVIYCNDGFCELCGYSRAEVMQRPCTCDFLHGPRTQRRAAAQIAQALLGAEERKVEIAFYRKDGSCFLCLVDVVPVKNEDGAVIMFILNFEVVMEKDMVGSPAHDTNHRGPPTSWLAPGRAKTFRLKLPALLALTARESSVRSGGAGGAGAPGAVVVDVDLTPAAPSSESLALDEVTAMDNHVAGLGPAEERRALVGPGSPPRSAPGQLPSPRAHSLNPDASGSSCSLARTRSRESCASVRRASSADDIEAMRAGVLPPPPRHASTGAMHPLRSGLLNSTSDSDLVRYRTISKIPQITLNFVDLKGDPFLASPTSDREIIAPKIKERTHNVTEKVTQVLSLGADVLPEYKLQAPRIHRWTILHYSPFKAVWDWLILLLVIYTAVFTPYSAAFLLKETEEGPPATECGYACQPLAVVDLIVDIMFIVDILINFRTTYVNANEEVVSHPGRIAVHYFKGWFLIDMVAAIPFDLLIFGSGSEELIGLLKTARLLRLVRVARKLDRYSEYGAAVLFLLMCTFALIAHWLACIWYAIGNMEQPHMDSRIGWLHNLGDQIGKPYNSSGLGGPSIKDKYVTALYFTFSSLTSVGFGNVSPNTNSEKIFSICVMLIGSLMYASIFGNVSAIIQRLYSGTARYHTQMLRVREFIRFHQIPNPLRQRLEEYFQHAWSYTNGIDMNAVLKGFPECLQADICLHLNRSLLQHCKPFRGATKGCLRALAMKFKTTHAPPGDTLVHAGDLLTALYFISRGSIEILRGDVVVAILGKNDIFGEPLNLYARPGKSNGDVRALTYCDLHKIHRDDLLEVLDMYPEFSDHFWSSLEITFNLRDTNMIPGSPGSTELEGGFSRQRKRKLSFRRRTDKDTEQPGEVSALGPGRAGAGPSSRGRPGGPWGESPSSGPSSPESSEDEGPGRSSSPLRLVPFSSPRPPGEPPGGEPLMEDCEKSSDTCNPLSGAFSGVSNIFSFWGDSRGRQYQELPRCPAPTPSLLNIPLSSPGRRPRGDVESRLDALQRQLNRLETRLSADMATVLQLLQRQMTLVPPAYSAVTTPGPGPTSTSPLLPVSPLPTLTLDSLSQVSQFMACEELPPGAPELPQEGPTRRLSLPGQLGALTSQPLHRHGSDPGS

SMILES	hERG current change (%, negative = inhibition) at 10uM [%]
CCn1c(CCNC(=O)c2ccc(F)cc2)nc2ccccc21	-33.9
COc1ccc(-c2[nH]ncc2CN2CCCOc3c(cccc3OC)C2)c(OC)c1	-48
OCC[C@H]1C[C@@H](O)[C@H](O)[C@]2(OCc3ccccc32)O1	-0.346
O=C(NC1CCCC1)C1CCCN(S(=O)(=O)c2cnc[nH]2)C1 (stereo not shown)	15.3
Cc1ccc(CCNC(=O)CNC(=O)c2cccs2)cc1	25.4
CCn1c(CN2CCN(C(c3ccccc3)c3ccccc3)CC2)nc2c1c(=O)n(C)c(=O)n2C	-43.9
CC(C)=NNC(=O)C1=NNC(=O)C1	12.3
CCN(CC(=O)NCc1ccc(Cl)cc1)C(=O)CCC(=O)c1ccc(F)cc1	-61.9
CCC(C)n1c(SCC(=O)Nc2ccc3[nH]c(=O)[nH]c3c2)nc2ccccc2c1=O (stereo not shown)	1.69
CCN(CC)Cc1c(CC(C)C)oc(C)c1C(=O)O.Cl	-4.52
Cc1cccc(-n2cnc(C(=O)N/N=C\c3ccc(Br)cc3)c2)n1	-11.9
CC(C)NC(=O)Cn1c(SCC(=O)NC2CCCC2)nc2ccccc21	-16.3
CCOCCCNC(=O)CCn1nc(-c2ccc(Cl)cc2)ccc1=O	-46.4
Cc1cc(NC(=O)CSCc2ccc([N+](=O)[O-])cc2)no1	-1.21
CCC(=O)N1CCc2cc(S(=O)(=O)Nc3ccc4c(c3)OCCO4)ccc21	10
C=CCn1c(SCC(=O)Nc2c(C)n(C)n(-c3ccccc3)c2=O)nc2sc(C)c(-c3ccccc3)c2c1=O	-54
CCCCn1c(N)c(N(CCOC)C(=O)c2cc(-c3ccccc3Cl)nc3ccccc23)c(=O)[nH]c1=O	-5.76
CCN(c1ccccc1)S(=O)(=O)c1ccc(C(=O)N(CCCN(C)C)c2nc3cc4c(cc3s2)OCO4)cc1.Cl	-57.4
O=C(C1CCN(Cc2nc(Cc3cccc(F)c3)no2)CC1)N1CCOCC1	1.52
COCc1nnc(NC(=O)CCCOc2ccccc2)s1	-2.55
CC(C)C(=O)Nc1ccc(NC(=O)c2cc3ccccc3o2)cc1	3.66
CCCC1CC(CSc2ncn[nH]2)OC1=O (stereo not shown)	-0.121

SMILES	hERG current change (%, negative = inhibition) at 10uM [%]
C=C(C)Cn1c(COc2ccccc2)nnc1SCC(=O)O	14.9
COc1cc(S(=O)(=O)N2CCCCCC2)ccc1-n1cnnn1	-16.9
Cn1cc(C(=O)NS(=O)(=O)Nc2ccc(Br)cc2)c2ccccc21	17.4
COc1cc(NC(=O)c2cccnc2)c(Cl)cc1NC(=O)c1ccc(Cl)cc1	-0.00342
COc1ccc2sc(SCCCS(=O)(=O)O)[n+](CCCS(=O)(=O)[O-])c2c1	24.1
Cc1ccc(C(=O)N/C(=C\c2cccnc2)C(=O)N2CCCC2)cc1	-1.72
CC(C)c1ccc(NC(=O)Cc2ccc(NC3=NC4CS(=O)(=O)CC4S3)cc2)cc1 (stereo not shown)	13.4
Cc1cccc(CCN2CCN=C2N(C)C)c1	0.575
COc1cc(C(=S)N2CCOCC2)ccc1OC(=O)c1ccccc1	0.478
CC1=C(Cl)C2=NS(=O)(=O)CCN2C=C1Cl	14.2
CC(C)(C)c1ccc(OCCn2ccccc2=O)cc1	-5.8
O=C(COc1ccc(F)cc1F)Nc1cccnc1	15.3
O=C(Cn1nc(C(=O)O)c2ccccc2c1=O)Nc1ccc2c(c1)OCO2	1.16
COc1ccc2c(c1)-c1nc(/N=C/c3cccc(OC)c3O)sc1CC2	10.5
COC(=O)c1cc(-c2ccc(F)cc2)n(-c2ccccc2)n1	-18.8
CC(C)c1ccc(NC(=O)COc2ccc(C3SCCS3)cc2)cc1	13.3
COc1cccc(C(=O)Nc2c(C(N)=O)oc3ccccc23)c1	3.4
COc1ccc2c(-c3ccccc3)cc(N3CCOCC3)nc2c1.O=C(O)C(=O)O	3.22
C=CCn1c(SCC(=O)NC2CCCCC2)nnc1C(C)NC(=O)c1cccs1 (stereo not shown)	-11
O=C(O)c1ccc2c(c1)C(=O)N(c1cc(C(=O)O)ccc1Br)C2=O	-4.78
COc1ccccc1C(CC(=O)c1ccccc1)CC(=O)c1ccccc1	19.1
Cn1c(=S)[nH]c2ccccc21	17.2

SMILES	hERG current change (%, negative = inhibition) at 10uM [%]
COC(=O)c1sc2ncn(CC(=O)N(C)C3CCCCC3)c(=O)c2c1C	11.9
CS(=O)(=O)N(Cc1cc2ccccc2[nH]c1=O)C1CCCCC1	-3.02
Cc1c(NC(=O)COC(=O)Cc2ccc(Br)cc2)c(=O)n(-c2ccccc2)n1C	5.33
CCOc1ncccc1C(=O)OCC(=O)Nc1cc(S(=O)(=O)N2CCOCC2)ccc1C	-8.24
O=C(CSc1ccc(Br)cc1)N1CCOCC1	15.5
COC1Cc2ccccc2N(C(N)=O)c2ccccc21 (stereo not shown)	7.85
Clc1ccc2c(c1)C=Nc1c(NCc3ccccc3)ncnc1O2	4.71
COc1ccc(S(=O)(=O)N2CCOCC2)cc1NC(=O)c1ccc(-n2nc(C)cc2C)cc1	-2.12
Cc1ccc(N(CC(=O)NC(C)c2ccccc2)S(=O)(=O)c2c(C)noc2C)cc1 (stereo not shown)	15.1
COc1ccc(C2C3=C(CC(C)(C)CC3=O)Nc3c2c(=O)[nH]c2nc(C)nn32)cc1 (stereo not shown)	6.49
COC(=O)c1sc(NC(=S)NC(=O)c2cc(OC)c(OC)c(OC)c2)nc1C	1.18
CCOC(=O)N1CCN(C(=O)C2CCN(S(=O)(=O)c3c(C)cc(C)cc3C)CC2)CC1	-22.9
O=C(Nc1nnc(S(=O)(=O)N2CCCC2)s1)c1ccccc1Br	4.16
Cc1ncc([N+](=O)[O-])n1CC(=O)Nc1ccccc1F	3.16
CC(CC(=O)Nc1nnc(CC(C)(C)C)s1)c1ccccc1 (stereo not shown)	23.6
COc1cccc(C(=O)N2CCN=C2SCc2cccnc2)c1OC	4.44
O=C(COc1cc(O)c2c(=O)cc(-c3ccccc3)oc2c1)c1cccc([N+](=O)[O-])c1	7.62
CC(C)(CNC(=O)C1CCCN1C(=O)c1cccs1)N1CCOCC1 (stereo not shown)	19.5
CN1CCc2c(sc(NC(=O)CS(=O)(=O)c3ccc(F)cc3)c2C(N)=O)C1.Cl	-58.8
CSCCC(NC(=O)c1ccccc1Br)C(=O)NCC1CCCCC1 (stereo not shown)	9.7
O=c1ccn(CCc2c[nH]c3ccccc23)c2c1CCCC2	-11.5
CCC(C(=O)NC(C)c1ccccc1)C(=O)NC(C)c1ccccc1 (stereo not shown)	17

SMILES	hERG current change (%, negative = inhibition) at 10uM [%]
CCCc1ncc(C(O)c2cccc3ccccc23)n1C (stereo not shown)	-22.6
CSc1nc2nc(-c3ccc(F)cc3)c(CCN3CCN(C)CC3)cn2n1	-2.66
O=[N+]([O-])c1ccc(/C=N/n2c(C3CCCCC3)n[nH]c2=S)cc1	18.6
O=C(Cc1ccc(Cl)cc1)OCc1nnc(-c2ccccc2)o1	11.2
O=C(NNS(=O)(=O)c1ccc(F)cc1)C1CCN(S(=O)(=O)c2ccccc2)CC1	-2.74
O=C1N=C(N2CCOCC2)S/C1=C\c1cccs1	3.81
COC(=O)c1ccc(NC(=O)C(=O)N2CCN(C(=S)Nc3ccccc3OC)CC2)cc1	-13.4
COc1cccc(NC(=O)N2CCN(c3ccc(C(F)(F)F)cn3)CC2)c1	-3.19
COC(=O)c1ccc(Cl)c(NC(=O)CN(c2ccc(OC)cc2)S(=O)(=O)c2ccccc2)c1	3.49
Cc1cc(-c2nn(-c3ccccc3F)cc2CNCCc2cnc[nH]2)c(C)s1	-53.6
Cc1cc2oc(=O)cc(CN3CCCCC3C)c2cc1Cl (stereo not shown)	-0.834
O=C(N/N=C/c1cccc([N+](=O)[O-])c1)c1cccs1	-16.5
CCOc1ccc(NC(=O)CSc2nc3cccnc3n2CCOC)cc1	-20.4
COCCNC(=O)c1ccccc1N(Cc1ccccc1)S(=O)(=O)c1ccccc1	6.15
O=C(N/N=C\c1c[nH]c2ccccc12)c1ccc(O)cc1	18.1
O=C(Nc1ccc(Cl)c(Cl)c1)c1ccccc1	-13.3
Cc1ccc(C)c(S(=O)(=O)N2CCN(C(=O)Cn3c(=O)cnc4ccccc43)CC2)c1	-10
CN1/C(=C\C(=O)CSc2cccc[n+]2[O-])C(C)(C)c2ccccc21	26.3
Cc1sc2ncnc(Sc3ccccc3C(=O)Nc3ccc(C#N)cc3)c2c1C	-35.6
CC(=O)Nc1ccc(S(=O)(=O)N2CCCN(S(=O)(=O)c3ccc(NC(C)=O)cc3)CC2)cc1	-0.406
COc1ccc(-n2nc(N)c(C(N)=O)n2)cc1	16.8
Cc1cccc(OCC(=O)Nc2cc(NC(=O)COc3cccc(C)c3C)cc(C(=O)O)c2)c1C	23.6
